Data reported in PubChem BioAssay AID485367 (National Center for Advancing Translational Sciences (NCATS), 2010).
The campaign covered roughly 330,000 compounds. About 560 (0.17%) were called active. Inconclusive results, whose numbers are uncertain, are shown with a selection of clear calls. The call rests on the fitted dose curve; in most records, active means well fitted inhibition curve with a large enough effect; inconclusive means small, poorly fitted or top-dose-only effect, or effect the other way; inactive means flat fitted curve, though single readings scatter. Potencies of inconclusive entries are left out as doubtful fits.

biological target: ATP-dependent 6-phosphofructokinase (Trypanosoma brucei brucei) (UniProt O15648); test: qHTS Assay to Find Inhibitors of T. brucei phosphofructokinase; further: nearly all actives have a fitted effect of over 60% in size;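 on activity, negative = inhibition: 0% = uninhibited 1x PFK enzyme wells and -100% = no-enzyme wells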; details: T. brucei PFK, ADP-Glo luminescence; activity, negative = inhibition: at 57.5 µM (top of the series)
Sequence of UniProt O15648 (O15648 whole entry, looked up): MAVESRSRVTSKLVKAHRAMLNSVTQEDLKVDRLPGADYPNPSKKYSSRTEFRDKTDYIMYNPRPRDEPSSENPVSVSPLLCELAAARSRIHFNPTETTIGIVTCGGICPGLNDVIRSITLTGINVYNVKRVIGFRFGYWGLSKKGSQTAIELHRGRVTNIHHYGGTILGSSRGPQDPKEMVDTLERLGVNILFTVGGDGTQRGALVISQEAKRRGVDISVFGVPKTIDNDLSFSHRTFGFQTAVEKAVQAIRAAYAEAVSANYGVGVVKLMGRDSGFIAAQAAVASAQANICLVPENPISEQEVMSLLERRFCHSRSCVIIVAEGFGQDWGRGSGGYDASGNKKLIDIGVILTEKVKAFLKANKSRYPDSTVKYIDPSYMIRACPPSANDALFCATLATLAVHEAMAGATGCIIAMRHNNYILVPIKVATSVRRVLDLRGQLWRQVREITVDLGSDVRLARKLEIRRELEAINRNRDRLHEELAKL
Outline: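 Compounds were pin-transferred as a titration series up to 57 uM into substrate buffer (0.5 mM F6P, 0.1 mM ATP, pH 8.0), then 1.25 nM PFK was added and reactions ran 45 min before ADP-Glo detection.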
Potency means the concentration at half of the fitted maximal effect; tags describe the fitted curve by direction and shape.

Row | Structure (SMILES) | Potency | activity, negative = inhibition
1 | CC(C)C1C(C#N)=C(N)SC(N)=C1C#N | inconclusive [activator, full curve, poor fit] | –
2 | Cc1c(NC(=O)c2cnn3c(C(F)(F)F)cc(-c4ccco4)nc23)c(=O)n(-c2ccccc2)n1C | – | inactive: 6.39%
3 | O=C(NC1CCCCCC1)C1CCN(C(=O)c2ccc(Cl)cc2)CC1 | inconclusive [falling, single point] | –
4 | CC1(c2ccc3ccccc3c2)NC(=O)N(CC(=O)N2CCN(Cc3ccc(C#N)cc3)CC2)C1=O (stereo unspecified) | inconclusive [activator, single point] | –
5 | CCn1nc(C(=O)OCC(=O)NC(C)C)c2ccccc2c1=O | – | inactive: -0.702%
6 | Cc1ccc(S(=O)(=O)N(C)C)cc1NC(=O)COC(=O)Cc1ccccc1F | – | inactive: 1.92%
7 | O=C(O)CCCN1C(=O)/C(=C/c2ccc(-c3nc4ccccc4s3)o2)SC1=S | – | inactive: -2.38%
8 | Cc1ccc(N2C(=O)CS(=O)C(c3ccccc3)C2=O)cc1C (stereo unspecified) | inconclusive [falling, partial curve] | –
9 | CCCOc1ccccc1N1C(=O)CC(N(O)c2ccccc2)C1=O (stereo unspecified) | – | inactive: 0%
10 | C/C(=N\NC(=O)CNc1cccc(Cl)c1C)C1CC1 | active: 21.3 µM | –
11 | O=C(Nc1cccc(Cl)c1)C1CCCN(C2=NS(=O)(=O)c3ccccc32)C1 (stereo unspecified) | inconclusive [activator, single point] | –
12 | CCOCc1nnc(NC(=O)c2cc(Cl)ccc2OC)s1 | inconclusive [falling, single point] | –
13 | Cc1[nH]n(-c2ccccc2)c(=O)c1/C=N/NC(=O)c1cccc([N+](=O)[O-])c1 | – | inactive: -1.06%
14 | Cc1ccc2c(C)c(C(=O)Nc3c(C)n(C)n(-c4ccccc4)c3=O)oc2c1C | inconclusive [falling, single point] | –
15 | O=C(CN1C(=O)c2ccccc2S1(=O)=O)NCc1ccccc1Cl | inconclusive [falling, single point] | –
16 | CC(C(=O)N1CCc2ccccc21)N1CCN(c2ccccn2)CC1 (stereo unspecified) | inconclusive [falling, single point] | –
17 | Nc1ccc(C(=O)OCC(=O)N2CCc3ccccc3C2)cc1[N+](=O)[O-] | inconclusive [falling, single point] | –
18 | O=C(Cc1cccs1)Nc1nc2c(s1)CCCC2 | inconclusive [falling, single point] | –

Row | Structure (SMILES) | Potency | activity, negative = inhibition
19 | O=C(CN1CCOCC1)Nc1ncc(Cc2cccc(Cl)c2)s1 | inconclusive [falling, partial curve] | –
20 | O=C(Nc1cc(Cl)ccc1O)c1cc2n(n1)C(C(F)(F)F)CC(c1ccc3c(c1)OCO3)N2 (stereo unspecified) | – | inactive: -8.04%
21 | COc1ccc(NC(=O)Nc2ccc(C(C)C)cc2)cc1 | inconclusive [falling, single point] | –
22 | CC(=O)c1cnc2c(C(=O)O)cnn2c1C | – | inactive: -0.501%
23 | CN(CC(=O)Nc1ccc(S(N)(=O)=O)cc1)c1ccccc1 | inconclusive [falling, single point] | –
24 | Nc1nc(-c2ccco2)c(-c2ccco2)s1 | inconclusive [falling, partial curve] | –
25 | Cn1nnnc1Sc1ncnc2scc(-c3cccc(C(F)(F)F)c3)c12 | – | inactive: 3.69%
26 | CNC(=S)N(CCc1cccc(C)c1)Cc1cc2cc(OC)c(OC)cc2[nH]c1=O | – | inactive: 3.44%
27 | C[C@H]1C[C@@H]2[C@H]([C@@H](O)C[C@@]3(C)[C@H]2CC[C@]3(O)C(=O)CO)[C@@]2(C)C=CC(=O)C=C12 | inconclusive [activator, single point] | –
28 | COc1ccc(N2CCN(C(=O)c3c(C)nn(-c4ccccc4)c3C)CC2)cc1 | inconclusive [falling, single point] | –
29 | ClC(Cl)(c1nnnn1-c1ccccc1)c1nnnn1-c1ccccc1 | active: 10.7 µM | –
30 | Nc1ccccc1N=c1ssnc1Cl | inconclusive [falling, full curve, poor fit] | –
31 | O=C(Cc1ccc(S(=O)(=O)N2CCCC2)s1)NC1CCCCCC1 | inconclusive [falling, single point] | –
32 | COC(=O)N1CCN(c2ccc(Cl)c(Cl)c2)CC1 | active: 30.1 µM | –
33 | CN(CC(=O)Nc1c(Cl)cccc1Cl)C(=O)CC1Sc2ccccc2NC1=O (stereo unspecified) | inconclusive [falling, single point] | –
34 | O=C(CCO)c1ccc(O)cc1 | inconclusive [falling, single point] | –
35 | Cc1nnc(-c2cccc(Br)c2)c2cn(-c3ccccc3Cl)nc12 | – | inactive: -9.48%
36 | O=C(COC(=O)c1ccccc1)Nc1ccc2[nH]c(=O)[nH]c2c1 | inconclusive [falling, single point] | –
